Results are given in words; binding and its absence hold for the method and conditions named. For some of these results: In cells and extracts the contact can be indirect. Some results given as binding are weak or reduced against the parent protein; the word gives no strength. For some of these results: Where a sequence is shown, tags or fusion partners need not be part of it.
Assays:
[1] = target: GFP-16E5 truncation mutant 1–54 (Human papillomavirus type 16 (HPV16)) (UniProt P06927); assay: co-IP; lysates of co-transfected HEK293T cells; GFP-TRAP precipitation; precipitates probed for GFP fusions and for the FLAG epitope
[2] = target: GFP-16E5 fusion protein (HPV16 E5, 1–83, full-length) (Human papillomavirus type 16 (HPV16)) (UniProt P06927); assay: as above
[3] = target: FLAG-YIPF4 (wild-type, 1–244) (human) (UniProt Q9BSR8); assay: co-IP; HEK293T lysates, proteins co-expressed; FLAG-YIPF4 or its truncations as bait, precipitated with FLAG antibody/FLAG beads; blots for GFP and FLAG; binding buffer 50 mM Tris/Cl pH 7.4, 100 mM KCl, 0.2% NP40; 1 h at RT
[4] = target: 16E5 bait, fused to the C-terminus of the DNA binding domain of GAL4 (Human papillomavirus type 16 (HPV16)) (UniProt P06927); assay: two-hybrid; semi-automated screen; 16E5 bait on the GAL4 DNA binding domain (pGBKT7, AH109) against HeLa and human testis epithelial cell prey libraries (pGADT7, Y187); SD media lacking leucine, tryptophan and histidine, with 3-AT; data not shown
[5] = target: endogenous YIPF4 (human (endogenous in C33A)) (UniProt Q9BSR8); assay: co-IP; C33A lysates; precipitated with a YIPF4 antibody (dynabeads protein G); binding buffer 50 mM Tris/Cl pH 7.4, 100 mM KCl, 0.2% NP40; 1 h at RT
[6] = target: FLAG-YIPF4 (wild-type, 1–244) (human) (UniProt Q9BSR8); assay: as above
[7] = target: FLAG-YIPF4 truncation mutant 1–117 (human) (UniProt Q9BSR8); assay: co-IP; HEK293T lysates, proteins co-expressed; FLAG-YIPF4 or its truncations as bait, precipitated with FLAG antibody/FLAG beads; blots for GFP and FLAG; binding buffer 50 mM Tris/Cl pH 7.4, 100 mM KCl, 0.2% NP40; 1 h at RT
[8] = target: FLAG-YIPF4 truncation mutant 1–223 (human) (UniProt Q9BSR8); assay: as above
[9] = target: FLAG-YIPF4 truncation mutant 1–138 (human) (UniProt Q9BSR8); assay: as above
[10] = target: FLAG-YIPF4 truncation mutant 1–195 (human) (UniProt Q9BSR8); assay: as above
[11] = target: FLAG-YIPF4 truncation mutant 1–166 (human) (UniProt Q9BSR8); assay: as above
[12] = target: GFP-16E5 fusion protein (HPV16 E5, 1–83, full-length) (Human papillomavirus type 16 (HPV16)) (UniProt P06927); assay: co-IP; HEK293T lysates; precipitated with a GFP antibody coupled to beads (dynabeads protein G); blots for GFP and FLAG; binding buffer 50 mM Tris/Cl pH 7.4, 100 mM KCl, 0.2% NP40; 1 h at RT
[13] = target: FLAG-YIPF4 (wild-type, 1–244) (human) (UniProt Q9BSR8); assay: co-IP; HEK293T lysates, proteins co-expressed; FLAG-YIPF4 or its truncations as bait, precipitated with FLAG antibody/FLAG beads; blots for GFP and FLAG; binding buffer 50 mM Tris/Cl pH 7.4, 100 mM KCl, 0.2% NP40; 1 h at RT; remark: listed apart in the source

The chains behind the UniProt entries cited, without tags or fusion partners. Where a name states a change or a piece, a line headed by the entry shows the natural chain unless it says otherwise. Residues count along the entry.
UniProt Q9BSR8: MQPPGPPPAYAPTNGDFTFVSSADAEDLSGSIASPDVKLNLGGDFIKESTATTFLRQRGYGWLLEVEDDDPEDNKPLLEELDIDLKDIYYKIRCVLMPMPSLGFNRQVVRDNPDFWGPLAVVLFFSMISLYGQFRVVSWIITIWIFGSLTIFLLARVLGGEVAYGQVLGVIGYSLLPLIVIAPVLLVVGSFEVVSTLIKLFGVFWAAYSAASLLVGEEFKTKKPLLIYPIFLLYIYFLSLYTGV
FLAG-YIPF4 truncation mutant 1–223: residues 1-223 of Q9BSR8
FLAG-YIPF4 truncation mutant 1–195: residues 1-195 of Q9BSR8
FLAG-YIPF4 truncation mutant 1–166: residues 1-166 of Q9BSR8
FLAG-YIPF4 truncation mutant 1–117: residues 1-117 of Q9BSR8
UniProt P06460: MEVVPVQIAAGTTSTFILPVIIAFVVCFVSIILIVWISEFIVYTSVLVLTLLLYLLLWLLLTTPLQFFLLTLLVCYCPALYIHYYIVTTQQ
UniProt P03129: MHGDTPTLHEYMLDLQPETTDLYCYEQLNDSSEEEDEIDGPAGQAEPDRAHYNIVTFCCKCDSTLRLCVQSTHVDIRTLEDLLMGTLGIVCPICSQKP
UniProt P03126: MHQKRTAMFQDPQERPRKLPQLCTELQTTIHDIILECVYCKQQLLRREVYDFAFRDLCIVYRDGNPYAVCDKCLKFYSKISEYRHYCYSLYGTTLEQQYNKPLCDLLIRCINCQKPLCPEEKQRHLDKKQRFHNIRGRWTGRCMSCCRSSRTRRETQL

“FLAG-YIPF4 truncation mutant 1–138 (from UniProt Q9BSR8 1-138) (domain or fragment)” was tested, and the binding [1] was “binds” and the binding [2] was “binds”.

“GFP-16E5 truncation mutant 1–54 (from UniProt P06927 1-54) (domain or fragment)” was tested, and the binding [3] was “binds”.

“YIPF4 prey, fused to the GAL4 activation domain (from UniProt Q9BSR8 1-244)” was tested, and the binding [4] was “binds”.

“GFP fusion of HPV6b E5a (6bE5a) (from UniProt P06460 1-91)” was tested, and the binding [3] was “binds”.

With “GFP fusion protein of 16E7 (from UniProt P03129 1-98)” the binding [3] was “no binding”.

In the case of “GFP-16E5 fusion protein (HPV16 E5, 1–83, full-length) (from UniProt P06927 1-83)”, the binding [5] is reported as “binds”, the binding [6] is reported as “binds” and the binding [7] is reported as “no binding”. For the same molecule, the binding [8] was “binds”, the binding [9] was “binds weakly” and the binding [10] was “binds”. The binding [3] was “binds” and the binding [11] was “binds”.

With “FLAG-optineurin (from UniProt Q96CV9 1-577)” the binding [12] was “no binding”.

“GFP fusion protein of 16E6 (from UniProt P03126 1-158)” was tested, and the binding [3] was “no binding”.

For “FLAG-YIPF4 (wild-type, 1–244) (from UniProt Q9BSR8 1-244)”, the binding [12] was “binds”.

“GFP-16E5 truncation mutant 1–79 (from UniProt P06927 1-79) (domain or fragment)” was tested, and the binding [3] was “binds”.

MPNLWFLLFLGLVAAMQLLLLLFLLLFFLVYWDHFECSCTGLPF (peptide, UniProt P0CK45 1-44) [GFP fusion of BPV1 E5] was tested, and the binding [13] was “binds”.

From publication PMC4522686
